According to patent US20220106389A1 (BEIJING BEYOND BIOTECHNOLOGY, published 2022):

T1: Recombinant human CTLA-4 (human, UniProt P16410 37-162)
T1 construct: Bought protein; also called hCTLA-4
T1 sequence (looked up): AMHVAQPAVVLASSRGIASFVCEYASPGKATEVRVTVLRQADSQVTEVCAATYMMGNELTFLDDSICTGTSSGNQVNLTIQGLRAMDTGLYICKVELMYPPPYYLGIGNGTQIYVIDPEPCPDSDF

T2: Mouse VEGF164 (mouse, UniProt Q00731-2 27-190)
T2 construct: Bought protein; also called mouse VEGF-A
T2 sequence (looked up): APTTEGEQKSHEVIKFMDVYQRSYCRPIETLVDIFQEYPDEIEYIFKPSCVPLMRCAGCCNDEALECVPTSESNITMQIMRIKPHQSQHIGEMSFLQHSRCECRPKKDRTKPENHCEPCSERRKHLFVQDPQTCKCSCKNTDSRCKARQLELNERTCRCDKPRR

T3: VEGF165 (human, UniProt P15692-4 27-191)
T3 construct: Bought protein; also called VEGF-A; human-VEGF-A
T3 sequence (looked up): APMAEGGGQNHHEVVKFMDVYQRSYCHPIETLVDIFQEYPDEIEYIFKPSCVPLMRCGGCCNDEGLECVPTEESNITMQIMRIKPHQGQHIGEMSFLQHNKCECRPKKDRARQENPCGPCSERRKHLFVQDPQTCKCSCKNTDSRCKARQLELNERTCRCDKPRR

B1: Fusion protein BY31.19 (Fc fusion)
chain: VIHVTKEVKEVATLSCGHNVSVEELAQTRIYWQKEKKMVLTMMSGDMNIWPEYKNRTIFDITNNLSIVILALRPSDEGTYECVVLKYEKDAFKREHLAEVTLSVKADFPTPSDKRV[human IgG4 Fc with S228P (EU numbers) left out here]
notes: Positive control in the ELISA; also called CD80-Fc fusion protein; CD80-Fc, IgG4
B2: Fusion protein BY24.5 (other)
light: DIQMTQSPSSVSASIGDRVTITCRASQGIDNWLGWYQQKPGKAPKLLIYDASNLDTGVPSRFSGSGSGTYFTLTISSLQAEDFAVYFCQQAKAFPPTFGGGTKVEIKRTVAAPSVFIFPPSDEQLKSGTASVVCLLNNFYPREAKVQWKVDNALQSGNSQESVTEQDSKDSTYSLSSTLTLSKADYEKHKVYACEVTHQGLSSPVTKSFNRGEC
heavy: EVQLVQSGGGLVKPGGSLRLSCAASGFTFSSYSMNWVRQAPGKGLEWVSSISSSSSYIYYADSVKGRFTISRDNAKNSLYLQMNSLRAEDTAVYYCARVTDAFDIWGQGTLVTVSSASTKGPSVFPLAPCSRSTSESTAALGCLVKDYFPEPVTVSWNSGALTSGVHTFPAVLQSSGLYSLSSVVTVPSSSLGTKTYTCNVDHKPSNTKVDKRV[human IgG4 Fc with S228P (EU numbers) left out here]GGGSGGGGSGGGGSVIHVTKEVKEVATLSCGHNVSVEELAQTRIYWQKEKKMVLTMMSGDMNIWPEYKNRTIFDITNNLSIVILALRPSDEGTYECVVLKYEKDAFKREHLAEVTLSVKADFPTPS
notes: Full-length anti-VEGFR antibody (kappa, IgG4) with CD80 IgV fused through a (G4S)3 linker to the C-terminus of each heavy chain; also called anti-VEGFR antibody-CD80 fusion protein; BY24.5 (κ, IgG4)
B3: Fusion protein BY24.12 (Fc fusion)
chain: VIHVTKEVKEVATLSCGHNVSVEELAQTRIYWQKEKKMVLTMMSGDMNIWPEYKNRTIFDITNNLSIVILALRPSDEGTYECVVLKYEKDAFKREHLAEVTLSVKADFPTPSDKRV[human IgG4 Fc with S228P (EU numbers) left out here]GGGSGGGGSGGGGSASDTGRPFVEMYSEIPEIIHMTEGRELVIPCRVTSPNITVTLKKFPLDTLIPDGKRIIWDSRKGFIISNATYKEIGLLTCEATVNGHLYKTNYLTHRQTNTIIDVVLSPSHGIELSVGEKLVLNCTARTELNVGIDFNWEYPSSKHQHKKLVNRDLKTQSGSEMKKFLSTLTIDGVTRSDQGLYTCAASSGLMTKKNSTFVRVHE
notes: also called CD80-Fc-VEGFR fusion protein

Assays:
[1] = biological target: T4, Recombinant human PD-L1 (human, UniProt Q9NZQ7 partial chain); assay: ELISA, plate coated with recombinant human PD-L1, anti-human HRP detection
T4 construct: Bought protein; also called hPD-L1

[2] = biological target: T1, Recombinant human CTLA-4; assay: ELISA, plate coated with recombinant human CTLA-4, anti-human HRP detection
[3] = biological target: T5, VEGFR2 (UniProt P35968 20-764); assay: SPR (Biacore T100), fusion protein captured by anti-IgG on CM5 chip, antigen injected
T5 construct: Bought protein

[4] = biological target: T2, Mouse VEGF164; assay: as above
[5] = biological target: T3, VEGF165; assay: as above

T5 sequence (P35968 20-764 limits assumed): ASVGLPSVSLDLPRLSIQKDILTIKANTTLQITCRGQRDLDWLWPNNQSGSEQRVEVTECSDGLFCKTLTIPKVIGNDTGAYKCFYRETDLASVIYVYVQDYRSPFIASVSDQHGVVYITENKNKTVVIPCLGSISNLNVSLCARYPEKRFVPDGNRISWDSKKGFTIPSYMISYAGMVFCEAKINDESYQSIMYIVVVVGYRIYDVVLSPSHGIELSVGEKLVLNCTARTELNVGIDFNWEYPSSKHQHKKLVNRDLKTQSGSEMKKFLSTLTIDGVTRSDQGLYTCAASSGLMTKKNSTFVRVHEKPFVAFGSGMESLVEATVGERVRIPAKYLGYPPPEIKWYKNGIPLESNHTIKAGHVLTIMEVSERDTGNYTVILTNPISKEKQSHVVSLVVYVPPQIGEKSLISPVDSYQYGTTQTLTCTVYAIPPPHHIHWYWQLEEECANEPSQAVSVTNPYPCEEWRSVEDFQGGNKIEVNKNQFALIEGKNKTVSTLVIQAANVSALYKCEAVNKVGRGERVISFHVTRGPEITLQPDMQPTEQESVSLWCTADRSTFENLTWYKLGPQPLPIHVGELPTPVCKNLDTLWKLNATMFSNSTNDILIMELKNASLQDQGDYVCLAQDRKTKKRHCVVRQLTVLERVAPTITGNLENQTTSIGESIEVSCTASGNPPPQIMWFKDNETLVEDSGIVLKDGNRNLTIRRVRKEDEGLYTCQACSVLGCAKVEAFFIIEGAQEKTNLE
T4 sequence (Q9NZQ7 19-238 limits assumed): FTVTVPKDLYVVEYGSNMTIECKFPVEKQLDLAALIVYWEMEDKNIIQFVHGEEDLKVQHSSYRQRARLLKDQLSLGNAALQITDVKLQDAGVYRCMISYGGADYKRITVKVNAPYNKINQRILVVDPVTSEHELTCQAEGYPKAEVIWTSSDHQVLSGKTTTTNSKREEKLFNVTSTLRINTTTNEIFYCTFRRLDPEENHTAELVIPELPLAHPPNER

Row | Binder | EC50 [1] [µg/mL] | EC50 [2] [µg/mL] | Kd [3] [pM] | koff [3] [s⁻¹] | kon [3] [M⁻¹ s⁻¹] | Kd [4] [pM] | koff [4] [s⁻¹] | kon [4] [M⁻¹ s⁻¹] | Kd [5] [pM] | koff [5] [s⁻¹] | kon [5] [M⁻¹ s⁻¹]
1 | B1 | 2.2 | 1.92 |  |  |  |  |  |  |  |  | 
2 | B2 | 5.17 | 3.75 | 81.7 | 5.57e-05 | 682000 |  |  |  |  |  | 
3 | B3 | 3.75 | 2.89 |  |  |  | 34.1 | 3.13e-05 | 918000 | 39.8 | 0.000125 | 3.15e+06
